# Measurements reported in PubChem BioAssay AID624202 (National Center for Advancing Translational Sciences (NCATS), 2012).
# Out of some 380,000 compounds screened, about 4,000 (1.1%) were called active. Inconclusive means that the source gave no clear call. Such entries were picked first, then a sample of the others. Calls come from the whole dose curve; as a rule, active = well fitted activation curve with a large enough effect; inconclusive = small, poorly fitted or top-dose-only effect; inactive = no such curve, though single readings can be large or run the other way. Potencies of inconclusive entries are doubtful fits and often do not repeat.
# Experiment: qHTS Assay to Identify Small Molecule Activators of BRCA1 Expression; note: nearly all actives have a fitted effect of over 80% in size
# Settings: MCF7-BRCA1-FFLuc reporter, luminescence, 48 h; activation: at 46.1 µM (top of the series), scaled: vehicle 0%, 10 µM genistein 100% unless noted
# Summary of the method: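 Luminescence from a BRCA1-driven firefly luciferase in MCF7 cells was read after 48 h compound exposure at 37 C. Data normalized against DMSO and a 10microM genistein activation control, then curve-fitted across the titration.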
# Potency is the fitted concentration of half-maximal effect; tags give direction and shape of the fitted curve.
SMILES,Potency,activation
O=C(Nc1ccc(Cl)cc1)Nc1ccccc1C(=O)O,"inconclusive: 0.501 µM [activator, full curve, poor fit]",–
CN(Cc1ccccc1)C(=O)CCC(=O)N(C)Cc1ccccc1,"inconclusive: 11.2 µM [activator, partial curve, poor fit]",–
Nc1ccc(N2CCN(CCCCN3C(=O)C4CCCN4C3=O)CC2)cc1 (stereo not given),inactive,–
COc1ccc(C2=Nn3c(nnc3-c3ccccc3OC)SC2)cc1OCC1CC1,inactive,–
COC(=O)[C@H](Cc1ccccc1)NC(=O)c1cc(COc2c(F)cccc2F)on1,"inconclusive: 14.1 µM [activator, partial curve, poor fit]",–
C[n+]1cc[nH]c1SCC(=O)c1ccc(Cl)cc1,"inconclusive: 10 µM [activator, partial curve, poor fit]",–
Clc1ccc(-c2cc3nc(NCc4cccc(Cl)c4)ccn3n2)cc1,"inconclusive: 3.16 µM [activator, partial curve, poor fit]",–
Cn1ncc2c(Nc3ccc4ccccc4c3)ncnc21,"inconclusive: 4.47 µM [activator, full curve, poor fit]",–
Cc1nn(-c2ccccc2)cc1C(=S)Nc1ccccc1,active: 7.94 µM,–
Cc1ccc(C(=O)NCCOc2ccc(Cl)cc2)cc1,"inconclusive: 10 µM [activator, partial curve, poor fit]",–
CC(=O)Cn1cnc2c(cnn2-c2ccc(C)c(C)c2)c1=O,active: 5.01 µM,–
CCOc1ccc(NC(=O)c2ccco2)c([N+](=O)[O-])c1,"inconclusive: 1.58 µM [activator, partial curve, poor fit]",–
C=CCN(CC=C)c1cnn(-c2nc3ccccc3[nH]2)c(=O)c1Cl,"inconclusive: 1.26 µM [activator, partial curve, poor fit]",–
CC1=C(C(=O)N2CCCCCC2)CC(CC(=O)NC(c2ccccc2)c2ccccc2)C(=O)N1Cc1ccccc1 (stereo not given),inactive,–
Cn1ncc([N+](=O)[O-])c1C(=O)Nc1ccc(-c2nc3ccccc3[nH]2)cc1,"inconclusive: 14.1 µM [activator, partial curve, poor fit]",–
O=C(/C=C/c1cccs1)c1ccc(N2CCOCC2)cc1,–,inconclusive: 58.5% [activator]
Nc1ccc2c(c1)C(=O)c1cc(N)c(Cl)cc1-2,inactive,–
Cc1ccc(C)c(CN2C(=O)c3ccccc3S(=O)c3ccc(C(=O)N4CCN(c5cccc(Cl)c5)CC4)cc32)c1 (stereo not given),inactive,–
COc1ccc(-c2nc(CS(=O)CC(=O)NC3CCC(C)CC3)c(C)o2)cc1OC (stereo not given),"inconclusive: 2 µM [activator, full curve, poor fit]",–
CC1CCC(NC(=O)c2cc3c(s2)CCCC3)CC1 (stereo not given),active: 3.98 µM,–
CCOc1ccc2nc(NC(=O)CCC(=O)c3cccs3)sc2c1,active: 1.78 µM,–
CCOC(=O)c1c(C)[nH]c(C(=O)NCc2ccccn2)c1C,"inconclusive: 11.2 µM [activator, partial curve, poor fit]",–
COc1ccc(Nc2oc(/C=C/c3cccc(OC)c3)nc2C#N)cc1,inactive,–
COc1ccc(/C=N/Nc2ccc(C(=O)O)cc2)c(OC)c1OC,"inconclusive: 7.08 µM [activator, full curve, poor fit]",–
O=C(CSc1ccccc1)NC1CCCCCCC1,active: 10 µM,–

SMILES,Potency,activation
Fc1ccc(N/N=C/c2ccncc2)c(F)c1,active: 14.1 µM,–
O=c1c2c3c(sc2nc2n1CCCCC2)CCCC3,active: 4.47 µM,–
O=C(Nc1ccc(Cc2ccncc2)cc1)c1cccs1,"inconclusive: 17.8 µM [activator, partial curve, poor fit]",–
CCS(=O)(=O)c1ccc2oc(Nc3ccccc3C)nc2c1,"inconclusive: 7.08 µM [activator, partial curve, poor fit]",–
CSc1ccc(C2(O)Cc3cccc[n+]3C2c2ccccc2)cc1 (stereo not given),inactive,–
Cc1cccc(NC(=O)COC(=O)c2cccc3c2C(=O)c2ccccc2C3=O)c1C,inactive,–
Cc1ccccc1C(=O)Nc1ccc2nc(SCC(=O)N3CCc4ccccc43)sc2c1,inactive,–
O=C(COC(=O)c1cc(=O)[nH]c2ccccc12)Nc1nc(-c2ccccc2)cs1,"inconclusive: 15.8 µM [activator, partial curve, poor fit]",–
COc1ccc(C2CC2/C(=N/O)c2ccccc2)cc1 (stereo not given),active: 11.2 µM,–
O=C(CCN1CCN(CCO)CC1)Nc1ccc(OCc2ccccc2)cc1,inactive,–
CCOc1ccc(-c2nc(=S)[nH][nH]2)cc1,"inconclusive: 14.1 µM [activator, partial curve, poor fit]",–
COc1ccc(Nc2ccc([N+](=O)[O-])cn2)cc1,"inconclusive: 14.1 µM [activator, single point]",–
CC(NC(=O)c1cc(COc2cccc(C(F)(F)F)c2)on1)c1nccs1 (stereo not given),"inconclusive: 15.8 µM [activator, single point]",–
CC(C)N=C1NN=C(c2ccc(Cl)c(Cl)c2)CS1,"inconclusive: 1 µM [activator, full curve, poor fit]",–
c1ccc(CN=C2Nc3ccccc3CS2)nc1,"inconclusive: 2.51 µM [activator, full curve, poor fit]",–
N/C(=N\OC(=O)COc1ccc(Br)cc1Cl)c1cccnc1,"inconclusive: 7.94 µM [activator, partial curve, poor fit]",–
CCc1ccc(NC(=O)c2ccc3nc(N)sc3c2)cc1,active: 11.2 µM,–
NS(=O)(=O)c1ccc2nc(NC(=O)Nc3ccccc3F)sc2c1,"inconclusive: 0.562 µM [activator, full curve, poor fit]",–
Cc1cc(C)c(NS(=O)(=O)c2ccc(-c3coc(C)n3)cc2)c(C)c1,"inconclusive: 2.51 µM [activator, partial curve, poor fit]",–
Cc1c(C(=O)N2CCc3ccccc3C2)oc2ccc(Br)cc12,inactive,–
Cc1ccc(OCC(=O)Nc2ccc([N+](=O)[O-])cc2)cc1,inactive,–
Cc1ccc(NC(=O)c2ccc3c(c2)C(=O)N(CC2CCCO2)C3=O)cc1C (stereo not given),inactive,–
O=C(Nc1ccc(Cl)cc1)NC1CCCCC1,"inconclusive: 1.26 µM [activator, full curve, poor fit]",–
O=C(Nc1ccc(N2CCOCC2)cc1)Nc1ccc(Cl)c(Cl)c1,"inconclusive: 12.6 µM [activator, partial curve, poor fit]",–
CC(C)=C(NC(=O)c1ccccc1)C(=O)N/N=C/c1ccc(O)cc1,"inconclusive: 35.5 µM [activator, single point]",–

SMILES,Potency,activation
CCN(CC)C(=O)CCc1nnc(Cc2cccc(C(F)(F)F)c2)o1,active: 10 µM,–
CN(CC(=O)NCc1ccco1)CC(=O)Nc1c(Cl)cccc1Cl,inactive,–
COCCCNC(=O)CCCn1c(=O)c2ccccc2n(CC(=O)Nc2c(C)cccc2C)c1=O,inactive,–
O=[N+]([O-])c1cc([N+](=O)[O-])c2cc(-c3cccnc3)[nH]c2c1,inactive,–
CCOc1ccc(Nc2oc(Cc3ccccc3)nc2C#N)cc1,"inconclusive: 11.2 µM [activator, partial curve, poor fit]",–
CCNc1nc(N)c(C(=O)c2ccc(Cl)s2)s1,active: 5.01 µM,–
CCOC(=O)C1CCN(C(=O)/C=C/c2ccccc2)CC1,"inconclusive: 1.26 µM [activator, full curve, poor fit]",–
CSc1nc2sc(-c3ccccc3)cc2c(=O)n1N,"inconclusive: 1.58 µM [activator, full curve, poor fit]",–
O=C(Nc1ccc(F)cc1)c1ccccc1,active: 11.2 µM,–
Cc1cc(C(=O)COc2ccccc2Cl)c(C)n1C1CC1,active: 12.6 µM,–
CC(Sc1nnc(C2CC2)n1C1CC1)C(=O)Nc1cccc(S(=O)(=O)N(C)C)c1 (stereo not given),inactive,–
Cc1ccc(NC(=O)CN2CCOCC2)c(Br)c1,inactive,–
N#Cc1cc2cc3c(cc2nc1N1CCCCC1)OCCO3,"inconclusive: 7.08 µM [activator, partial curve, poor fit]",–
COC(=O)C(Cc1ccccc1)NC(=O)CCNC(=O)c1ccco1 (stereo not given),inactive,–
COc1cccc(OCCOc2ccccc2[N+](=O)[O-])c1,"inconclusive: 11.2 µM [activator, partial curve, poor fit]",–
O=C(NNC(=O)c1cc2c(s1)CCCC2)c1ccccc1,"inconclusive: 25.1 µM [activator, partial curve, poor fit]",–
Cc1[nH]n(-c2ncc(-c3ccccc3)s2)c(=O)c1C(c1ccc(Br)cc1)C(C#N)C#N (stereo not given),inactive,–
CCOC(=O)CC1COCCN1C(=O)c1cc(COc2ccc(F)c(F)c2)on1 (stereo not given),"inconclusive: 31.6 µM [activator, single point]",–
Cc1sc(=NC(=O)c2ccco2)n(C)c1-c1ccccc1,"inconclusive: 1.58 µM [activator, partial curve, poor fit]",–
Nc1nc(F)nc2c1ncn2[C@@H]1O[C@H](CO)[C@@H](O)[C@H]1O,inactive,–
O=C(NC1CC1)c1ccc(-c2cnc3cccnn23)cc1,active: 7.94 µM,–
O=Cc1ccc(OCC(=O)N2CCc3ccccc32)c(Br)c1,"inconclusive: 1.26 µM [activator, full curve, poor fit]",–
COc1ccc(CN(Cc2ccccc2)C(=O)c2ccno2)cc1COc1ccc(NC(C)=O)cc1,inactive,–
CCOc1c(O)ccc(/C=C2\SC(=S)NC2=O)c1[N+](=O)[O-],active: 11.2 µM,–
Cn1cnc2cc(NC(=O)c3cccs3)ccc21,"inconclusive: 10 µM [activator, partial curve, poor fit]",–
